Paper PMC9747160
Results are given in words; binding and its absence hold for the method and conditions named. In cells and extracts the contact can be indirect. Some results given as binding are weak or reduced against the parent protein; the word gives no strength. Where a sequence is shown, tags or fusion partners need not be part of it.

Sequences of proteins named here, by UniProt entry; tags and fusion partners are left off. Residues count along the entry.
UniProt Q9HC16, residues 197-384: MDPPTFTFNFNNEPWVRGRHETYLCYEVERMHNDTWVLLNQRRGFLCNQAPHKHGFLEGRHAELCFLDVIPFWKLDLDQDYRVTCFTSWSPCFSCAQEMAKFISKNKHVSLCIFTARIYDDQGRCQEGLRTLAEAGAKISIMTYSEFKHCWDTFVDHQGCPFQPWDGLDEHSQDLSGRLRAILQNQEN

Target: T1, Epstein-Barr virus (EBV) BORF2, ribonucleotide reductase (RNR) large subunit, C-terminal 3xFLAG (Epstein-Barr virus (EBV, HHV-4)) (UniProt P03190)
T1 sequence: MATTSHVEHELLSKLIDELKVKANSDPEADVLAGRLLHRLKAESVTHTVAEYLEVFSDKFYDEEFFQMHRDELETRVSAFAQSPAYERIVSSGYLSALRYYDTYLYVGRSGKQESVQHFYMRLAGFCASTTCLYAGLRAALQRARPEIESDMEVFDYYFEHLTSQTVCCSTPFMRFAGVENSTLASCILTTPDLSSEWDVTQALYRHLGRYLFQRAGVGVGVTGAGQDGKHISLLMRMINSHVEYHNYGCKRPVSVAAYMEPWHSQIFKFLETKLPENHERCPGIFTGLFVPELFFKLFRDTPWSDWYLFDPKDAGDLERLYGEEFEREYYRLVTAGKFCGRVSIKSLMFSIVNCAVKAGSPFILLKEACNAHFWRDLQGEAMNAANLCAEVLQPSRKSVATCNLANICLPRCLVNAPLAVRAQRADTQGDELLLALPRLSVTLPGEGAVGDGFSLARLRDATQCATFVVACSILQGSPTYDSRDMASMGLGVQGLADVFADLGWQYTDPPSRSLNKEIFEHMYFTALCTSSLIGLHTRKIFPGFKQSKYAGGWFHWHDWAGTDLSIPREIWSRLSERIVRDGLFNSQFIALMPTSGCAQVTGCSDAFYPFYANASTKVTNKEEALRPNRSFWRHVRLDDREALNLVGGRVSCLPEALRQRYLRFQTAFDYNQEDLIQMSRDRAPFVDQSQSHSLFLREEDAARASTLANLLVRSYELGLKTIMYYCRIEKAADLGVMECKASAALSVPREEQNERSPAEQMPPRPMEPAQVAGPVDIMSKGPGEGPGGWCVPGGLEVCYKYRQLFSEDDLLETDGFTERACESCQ
Experiment: co-IP; RNR-3xFLAG and A3-EGFP co-expressed in 293T cells; clarified lysate (50 mM Tris-HCl pH 7.4, 150 mM NaCl, 10% glycerol, 0.5% IGEPAL, 100 ug/ml RNaseA) on anti-FLAG M2 magnetic beads at 4°C overnight; eluted with FLAG peptide; anti-GFP immunoblot

Substance | binding
A3Gctd_(197-384)_L7A3A_(132-137), C-terminal EGFP (from UniProt Q9HC16-1 197-316; P31941-1 132-137; Q9HC16-1 323-384) | binds
A3A_L7A3G_(317-322), C-terminal EGFP (from UniProt P31941-1 1-131; Q9HC16-1 317-322; P31941-1 138-199) | no binding
human APOBEC3G catalytic domain, A3Gctd_(197-384), C-terminal EGFP (from UniProt Q9HC16-1 197-384) (domain or fragment) | no binding
human APOBEC3A, C-terminal EGFP (from UniProt P31941-1 1-199) | binds
A3A_L1A3G_(209-217), C-terminal EGFP (from UniProt P31941-1 1-24; Q9HC16-1 209-217; P31941-1 31-199) | binds
A3A_L3A3G_(247-254), C-terminal EGFP (from UniProt P31941-1 1-59; Q9HC16-1 247-254; P31941-1 68-199) | binds
